# Assay results from PubChem BioAssay (NCI).
# Where “and” joins values, the source holds several entries; their conditions need not be identical. Identical values can stand only once.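 Results reflect a 48-hour exposure of cells in 96-well plates to compound at five concentrations. At the GI50, growth is halved. TGI marks complete inhibition of growth.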
# Test system: NCI-H322M lung
# Assay: inhibition of tumour cell growth, NCI panel, 48 h
SMILES,TGI,GI50
CN1C(=O)C(O)CC1c1cccc(F)c1 (centres undefined),> 100 µM,–
Cc1ccc(C(=O)C#Cc2cn(C3CC(O)C(CO)O3)c(=O)[nH]c2=O)cc1 (centres undefined),> 100 µM,–
COc1cc2cc(Oc3ccc(NC(=O)c4ccc(Cl)c(C(F)(F)F)c4)cc3)c(C)nc2cc1OC,> 100 µM,55.7 µM
Cc1ccc(-c2n[nH]c(=O)[nH]2)cc1,> 100 µM,–
COc1cc(/C=C/C2=NN(c3cccc(S(=O)(=O)O)c3)C3(C2)C(Cl)C(=O)N3c2nc3ccccc3s2)ccc1O (centres undefined),> 100 µM,–
CCOC(=O)/C(C#N)=C1\N[C@H](C(=O)OCC)CO1,> 100 µM,–
O=[N+]([O-])/C(C(Cl)=C(Cl)Cl)=C1/OCCS1,> 100 µM,–
Cc1cc(C)c(C)c(-n2[nH]c(=O)n(C)c2=O)c1C,> 100 µM,–
O=[N+]([O-])c1ccc(N=NN2CCCC2)cc1,> 100 µM,–
Nc1ccc(S(=O)(=O)c2ccc(NC(=O)c3cccnc3)cc2)cc1,> 100 µM,–
Cc1cc(NS(=O)(=O)c2ccc(Nc3c4ccccc4nc4ccc(C(=O)Nc5ccc(S(=O)(=O)N=C(N)N)cc5)cc34)cc2)no1,> 100 µM,–
CC(C)N1CSC(=S)N(Cc2ccccc2)C1,> 10 µM,–
CN(C)C(=C1c2cc([N+](=O)[O-])ccc2-c2ccc([N+](=O)[O-])cc21)N(C)C,> 100 µM,–
N#Cc1ccc(OCc2ccc3nc(-c4ccccc4)c(Cl)nc3c2)cc1,> 100 µM,–
[O-]c1on[n+]2c1c(Nc1ccc(Cl)cc1)nc1ccccc12,> 100 µM,–
COc1cc2c(c(OC)c1OC)C(=O)[C@H]1OC(=O)N[C@@H]21,> 100 µM,–
CC[CH2][Pb]([CH2]CC)([CH2]CC)[NH]S(=O)(=O)c1ccc(C)cc1,0.336 µM,0.0671 µM
O=C1C(=O)N(C2CCCCC2)C(=S)N1C1CCCCC1,> 100 µM,–
CC(=O)Nc1ccc(N2C(=O)/C(=C\c3cccc(Oc4ccccc4)c3)SC2c2ccccc2)cc1 (centres undefined),> 100 µM,–
CC1CC[C@@]2(OC1)OC1C[C@H]3[C@@H]4CC[C@H]5CC(OC6OC(CO)C(OC7OC(CO)C(O)C(O)C7O)C(O)C6O)CCC5(C)[C@H]4CCC3(C)C1[C@@H]2C (some centres undefined),16.8 µM,–
O=Cc1cc2c(o1)C(=O)c1ccccc1C2=O,2.79 µM,–
CC(C)(C)OC(=O)CN1CCNCCN(CC(=O)OC(C)(C)C)CC1,> 100 µM,–
CC(C)CNC(=O)Cn1c2c(c3ccccc31)CCCC2,> 100 µM,–
C=C(N=[N+]=[N-])c1cn(C2CC(O)C(CO)O2)c(=O)[nH]c1=O (centres undefined),> 100 µM,–
CC(=O)NC(CCCN(Cc1ccccc1)C(=O)N(CCCl)N=O)C(=O)NCc1ccccc1 (centres undefined),> 100 µM,–

SMILES,TGI,GI50
O=c1[nH]cnc2c(C3OC(CO)C(O)C3O)scc12 (centres undefined),> 100 µM,> 100 µM
COc1ccccc1-c1c(C)nn2c(NCc3ccccn3)cc(C)nc12,> 50 µM,> 38.2 µM
COC(=O)C(=O)C(C(=O)C=C(C)C)C(=O)C(=O)Nc1cccc(C(C)=O)c1 (centres undefined),> 100 µM,–
Nc1nc(Nc2cccc(F)c2)nc2ccccc12,> 100 µM,31.3 µM
CC(C)(Br)C(=O)/C=C/c1ccccc1,68.3 µM,–
CSc1nc(-c2ccccc2)c2c(n1)-c1ccccc1CC2,> 100 µM,–
Clc1ccc2nc(Oc3ccccc3)cnc2c1,> 100 µM,> 100 µM
CC1=NN(C(=O)c2ccc(Cl)cc2)C(=O)/C1=C/c1cccc([N+](=O)[O-])c1,> 100 µM,–
COc1ccc(/C=C(\NC(=O)c2ccccc2)C(=O)NN(C)c2ccnc3cc(Cl)ccc23)cc1OC,> 100 µM,–
Cc1c2ccncc2c(C)c2c1[nH]c1ccc(OC(C)(C)C)cc12,7.42 µM,–
CCN1C(=O)C(=Cc2ccc(-c3ccccc3)cc2)C(=O)N(CC)C1=S,> 100 µM,–
Cc1cccc(C)c1NC(=O)CCCC(=O)C1CCC/C1=N\NC(=O)C(=O)NN (centres undefined),> 100 µM,–
O=C(Nc1ccc([N+](=O)[O-])cc1)C(=O)C(C(=O)c1ccccc1F)C1OC(=O)c2ccccc21 (centres undefined),92 µM,–
CC(C)OC(=O)c1ccc2[nH]c(O)c(C(=Nc3ccc(N(C)C(=O)CN4CCN(C)CC4)cc3)c3ccccc3)c2c1,2.76 µM,1.2 µM
C/C(=N\NC(N)=O)C(CN(C)C)C(c1ccccc1)c1c(O)c2ccccc2oc1=O (centres undefined),> 100 µM,–
COC(=O)C(Cc1nc2ccc(Cl)cc2[nH]c1=O)C(=O)C(=O)Nc1ccccc1[N+](=O)[O-] (centres undefined),> 100 µM,–
COC(=O)[C@@H]1CCCN1C(=O)[C@@H]1CCCN1C(=O)[C@@H](Cc1c[nH]c2ccccc12)NC(=S)Nc1cc(C(F)(F)F)cc(C(F)(F)F)c1,> 100 µM,19.6 µM
N=c1oc2ccc(Cl)cc2cc1C(=O)Nc1ccccc1,> 100 µM,–
O=C1C(N=Nc2ccc(-c3nc4ccccc4o3)cc2)NC(=S)N1c1ccccc1 (centres undefined),> 100 µM,–
c1ccc2c(c1)CCN2CCc1c[nH]c2ccccc12,> 10 µM,–
C/C=C(/CCCCNCCCC)[Si](C)(C)C,27.5 µM,–
Cc1cccc(C)c1NC(=O)CCCC(=O)C1CC(=O)CCC1=O (centres undefined),> 100 µM,–
N#Cc1c2c([nH]c(=O)c1C#N)CCCC2,> 100 µM,–
COc1ccc(NCC(=O)Nn2c(C)nc3ccc(S(=O)(=O)Nc4ccc(OC)cc4)cc3c2=O)cc1,> 100 µM,–
Oc1cc(Cl)ccc1Oc1ccc(Cl)cc1Cl,22 µM,9.22 µM

SMILES,TGI,GI50
Clc1ncnc2c1nc(C#Cc1ccccc1)n2Cc1ccccc1,31.8 µM,–
C=CCc1ccc(O)c(-c2cc(C3Oc4c(-c5cc(CC=C)ccc5O)cc(O)cc4[C@@H]3CO)ccc2O)c1 (some centres undefined),> 100 µM,–
Cc1cc(C2(c3cc(C)c(O)c(C(=O)O)c3)OS(=O)(=O)c3ccccc32)cc(C(=O)O)c1O,> 100 µM,–
O=C(NCCNCCO)N/N=C/c1ccc([N+](=O)[O-])cc1,> 100 µM,–
CC(=O)c1cccc(NCn2nnc3ccccc32)c1,> 100 µM,–
C=C(C)CCC(C)N1CCC(N2CCC(C(=O)NCCc3ccccc3)CC2)CC1 (centres undefined),> 100 µM,28.9 µM
CN(C)C(=O)C1CCC(=C2C(=O)OC(C)(C)OC2=O)N1C (centres undefined),> 100 µM,–
NCCCc1ccc2oc3ccccc3c2c1,23.9 µM,–
CCOC(=O)c1cnn(-c2ccnc3c(C(F)(F)F)cccc23)c1N,> 100 µM,> 100 µM
CC(C)=CCC/C(C)=C/Cc1c(O)ccc2c1[nH]c1cc(O)c(C)cc12,> 25 µM,–
CCN1C(=O)N(CC)C2C1NN=c1s/c(=C3\C(=O)N(C)c4ccccc43)c(=O)n12 (centres undefined),> 100 µM,14.8 µM
COc1ccc(CSc2nc3ccccc3nc2-c2cccs2)cc1,> 100 µM,–
C=C[C@]1(C)C=C2C(=O)[C@@]3(O)OC[C@@]4(CCCC(C)(C)C43O)C2(O)C(O)C1 (some centres undefined),35.3 µM,13.5 µM
O=C1CCc2cc3c(cc21)CC1(Cc2ccccc2C1)C3,> 94.1 µM,–
O=c1cccccc1NCCCCCCCCCNc1cccccc1=O,81.4 µM,–
C=CC12CN(C)C3C4COC(CC41)C1(C(=O)Nc4ccccc41)C32 (centres undefined),> 200 µM,–
CC(Oc1ccc(OCC2CCCCC2)cc1)C(=O)N(CCO)CCO (centres undefined),> 100 µM,–
O=C1C(=O)N(C2C3CC4CC(C3)CC2C4)C(=O)C(=O)C1c1nc2ccccc2o1 (centres undefined),> 100 µM,–
CC(=O)Oc1ccccc1C(=O)C1c2cccc(O)c2C(=O)c2c(O)cccc21,3.72 µM,–
COc1ccc2c(c1)nc(N)c1c3cccnc3cn21,57 µM,1.53 µM
N/N=C(\Cc1ccccc1)NN=C(N)N,> 100 µM,–
Cc1cc(N2CCCC2)nc(N(CCCNc2ccnc3cc(Cl)ccc23)Cc2ccc3c(c2)OCO3)n1,12 µM,1.67 µM
C[C@H](CSC(=O)c1ccccc1)C(=O)N1c2ccccc2C[C@H]1C(=O)O,> 100 µM,–
COc1ccc(/C=C2\CCCC3=C2NC(C)=NC3c2ccc(OC)c(OC)c2)cc1OC (centres undefined),> 100 µM,> 100 µM
O=C1CC2C(=O)N(Cc3ccccc3)C1C(S(=O)(=O)c1ccccc1)C2S(=O)(=O)c1ccccc1 (centres undefined),31.3 µM,–

SMILES,TGI,GI50
CN(N)/N=N/c1nc[nH]c1C(N)=O,> 100 µM,–
CSc1c(C(=O)Nc2ccc(Cl)cc2)c(N)[nH]c(=O)c1C#N,> 92.8 µM,–
FC(F)(F)c1ccc2nc(Nc3ccc(Cl)c(Cl)c3)c(-c3ccccc3)nc2c1,> 100 µM,–
NC1=Nc2ccccc2Sc2nnc(-c3ccc(Cl)cc3)n21,> 100 µM,–
CO[C@@H](c1ccccc1)[C@H](O)[C@](O)(c1ccccc1)P(=O)(OC)OC,> 100 µM,–
CCOC(=O)N1C2C=C(C)C(C3C(C)C(=O)N31)N(C(=O)c1ccccc1)O2 (centres undefined),> 100 µM,–
CCOC(=O)COc1ccc(/C=C/C(=O)c2ccc(OC)cc2)cc1,> 100 µM,–
O=C(NN1C(=O)CSC1c1ccc(Cl)cc1)c1[nH]c2ccc(F)cc2c1-c1ccccc1 (centres undefined),14.8 µM,3.56 µM
CCc1c[nH]c2ncnc(N3CC[C@@](N)(CNC(=O)c4ccc(F)cc4F)C3)c12,> 100 µM,48.6 µM
CCCCCCCCCCCCC(=O)[O-].CCCCCCCCCCCCC(=O)[O-].CCCCCCCCCCCCC(=O)[O-].CCCCCCCCCCCCC(=O)[O-].[Mo+2].[Mo+2],67.6 µM,19.5 µM
COc1ccc(C2NC3=C(CCCC3)C3(C#N)C(=O)N=C(N)C23C#N)cc1 (centres undefined),> 100 µM,–
O=c1oc2ccc(Cl)cc2c(=O)n1-c1ccc(I)cc1F,> 29 µM,0.236 µM
O=C(Nc1cc(Cl)c(Cl)cc1Cl)C(=O)C(C(=O)c1ccc(Cl)c(Cl)c1)C1OC(=O)c2ccccc21 (centres undefined),84.4 µM,–
N#Cc1ccccc1NC(=O)c1ccccc1,> 100 µM,–
CCc1cc2c(cc1CCCC(=O)O)CC1(Cc3ccc(C(=O)O)cc3C1)C2 (centres undefined),> 100 µM,–
Cn1cc(-c2ccc(CNc3cc(-c4cnc5cc(OCCCN6CCCC6)ccn45)ncn3)cc2)cn1,4.78 µM,2.03 µM
COc1ccc2c(c1)C(=O)c1c-2n(CCCN2CCOCC2)c(=O)c2ccccc12,> 59.5 µM,4.21 µM
CN(C)c1ccc(/C=C/c2cc[n+](C)c3ccccc23)cc1,19.6 µM,–
CS(=O)(=O)Nc1cc(-c2ccc3ncnc(Nc4ccc5c(cnn5Cc5ccc(F)cc5)c4)c3c2)cnc1Cl,4.51 µM,1.49 µM
Cc1ncc([N+](=O)[O-])n1CCNC(=O)CCCn1cnc([N+](=O)[O-])n1,> 100 µM,–
CCC1CN2CCc3cc(OC)c(OC)cc3C2CC1CC1c2cc(OC)c(OC)cc2CCN1C(=O)CNC(=O)OC(C)(C)C (centres undefined),26.3 µM,–
COc1ccc(-c2c(C#N)c(S)n(C3OC(CO)C(O)C(O)C3O)c(=O)c2C#N)cc1 (centres undefined),> 100 µM,–
CCCCCc1c(C)[nH]c(/C=C2\N=C(c3ccc[nH]3)C=C2Oc2ccc(Cl)cc2)c1C,74.3 µM,0.169 µM and 0.0734 µM
Clc1ccc(CN2COc3c(cc(Cl)c4cccnc34)C2)cc1,12.1 µM,–
Nc1nnc(-c2ccco2)c(-c2ccco2)n1,> 100 µM,–
